# Test results published in the supplement of paper PMC7826260.
# Some of the results follow. Cleavage of a single-stranded DNA pool by Rep nickase domains was read by sequencing at 3 µM enzyme and 37 °C for 1 h; the strands have 90 letters, of which the middle is given. Uncut reads are compared with the no-enzyme pool on a log2 scale; more negative means more cut, near 0 not cut, and no call is made. Shares of all reads are compared; uncut strands gain when others are lost, and binding without cutting may add a little.
# Tested on: T1, Rep nickase domain of tomato golden mosaic virus
# T1 sequence (residues 1-124 of Rep, tag left off): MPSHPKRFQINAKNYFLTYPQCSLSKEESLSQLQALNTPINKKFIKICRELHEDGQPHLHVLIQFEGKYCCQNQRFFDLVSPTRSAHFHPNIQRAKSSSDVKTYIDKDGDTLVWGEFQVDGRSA
# Assay: uncleaved DNA left, log2 of reads against the no-enzyme library (log2 ratio); higher = less cleavage (more negative = more Rep cleavage of the k-mer); sequences stand for … in CTCGTCCG…ACCGGAGA
# Protocol: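 A pool of 90-nt single-stranded DNAs with seven random bases just before the constant AC of the nick site (name = the seven bases) was cut by 3 µM recombinant His6-SUMO-tagged Rep nickase domain (300 nM DNA, 50 mM HEPES pH 8.0, 50 mM NaCl, 1 mM MnCl2, 1 h, 37 °C, three replicates). Uncut DNA was amplified and sequenced.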
row,Sequence,uncleaved DNA left (log2)
1,CGCCGTA,-0.168
2,CTACGCC,0.0271
3,GCGAAAT,-0.00716
4,TATCTTC,-0.161
5,CTCCTTG,-0.02
6,AGGCTCG,0.0541
7,GTTAAAG,0.0181
8,CCAGTTG,-0.0305
9,AACCCTG,0.0813
10,GTTGTCG,-0.125
11,AAGGCCC,0.0007
12,TTGGATT,-0.073
13,CAGTAGA,-0.0875
14,AATTGTT,-1.56
15,GACTTAG,0.056
16,GCGAAAG,0.0558
17,CTCTTTT,-0.047
18,ATCATCG,0.0184
19,TAGAATG,-0.0551
20,AACCTTA,-0.0469

row,Sequence,uncleaved DNA left (log2)
1,GGCCTAT,0.0221
2,CACTGTG,-0.0973
3,TACCGCC,-0.085
4,TTCATTT,-0.111
5,GCATCTG,-0.0191
6,TAATAAT,-4.09
7,CTTTACC,-0.154
8,CGCTCGA,-0.122
9,TACAGCT,-0.039
10,CACGTGT,0.00273
11,TTAAGAC,-0.0418
12,CAGGAGA,0.00149
13,CGAATCT,-0.0236
14,TGATTTT,-0.0696
15,GGATTGC,0.0187
16,GGTAAGA,0.0672
17,GGTGAAA,0.215
18,TCGATAA,-0.0416
19,TAAATAC,0.0191
20,GTGCCAC,0.153
